# Test results: paper PMC6919601, “Identification of Plasmodium dipeptidyl aminopeptidase allosteric inhibitors by high throughput screening” (PLoS ONE, 2019)
# The whole screen tested about 110,000 compounds, of which about 230 (0.21%) showed an effect of 50% or more. This is one part of the list.
# Target: DPAP1 (Plasmodium falciparum, UniProt Q8IIJ9)
# Assay: primary screen, percent inhibition; read by cleavage of a fluorogenic dipeptide substrate; higher = more effect of the substance
# Parameters: species or system P. falciparum D10 trophozoite lysates; single well
# 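Note: 30 min substrate incubation versus DMSO and 10 µM JCP410 controls.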
# Chain of DPAP1 (Q8IIJ9 whole entry, looked up): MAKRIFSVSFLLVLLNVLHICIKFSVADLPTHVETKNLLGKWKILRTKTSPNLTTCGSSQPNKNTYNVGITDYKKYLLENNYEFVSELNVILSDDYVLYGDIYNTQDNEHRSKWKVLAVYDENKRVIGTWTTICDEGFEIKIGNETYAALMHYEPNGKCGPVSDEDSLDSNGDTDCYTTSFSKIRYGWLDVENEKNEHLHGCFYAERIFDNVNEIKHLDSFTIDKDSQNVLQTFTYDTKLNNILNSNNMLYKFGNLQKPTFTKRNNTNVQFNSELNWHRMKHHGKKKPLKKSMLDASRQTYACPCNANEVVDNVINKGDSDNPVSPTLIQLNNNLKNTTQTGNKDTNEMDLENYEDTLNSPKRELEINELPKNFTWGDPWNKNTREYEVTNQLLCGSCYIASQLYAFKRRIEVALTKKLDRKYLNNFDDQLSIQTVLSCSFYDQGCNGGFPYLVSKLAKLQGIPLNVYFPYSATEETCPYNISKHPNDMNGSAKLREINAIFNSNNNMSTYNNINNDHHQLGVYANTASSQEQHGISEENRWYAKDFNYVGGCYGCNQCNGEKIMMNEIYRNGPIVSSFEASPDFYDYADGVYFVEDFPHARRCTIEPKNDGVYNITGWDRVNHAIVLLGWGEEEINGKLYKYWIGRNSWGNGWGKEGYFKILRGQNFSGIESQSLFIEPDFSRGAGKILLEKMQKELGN
row,Structure (SMILES),% Inhibition @ 10 uM
1,Cc1ccc(-n2nc(C)c3c(C(F)(F)F)cc(=O)n(CC(=O)NCc4ccccc4)c32)cc1,1.63%
2,CCCN1CCC(N(CC)CCN(C)C)CC1,-1.82%
3,O=C1OC2(CCCC2)OC(=O)C1=Cc1ccc(OCc2ccccc2F)cc1,-2.5%
4,Cc1nc2ccc(S(=O)(=O)NC(C(=O)NCc3ccc(F)cc3)C(C)C)cc2s1 (stereo not shown),-9.31%
5,CCOC(=O)N1CCN(c2c(NCc3ccccc3OC)c(=O)c2=O)CC1,3.54%
6,Cc1ccc(CS(=O)Cc2ccc(C(=O)NC(C)C34CC5CC(CC(C5)C3)C4)o2)cc1 (stereo not shown),3.24%
7,COc1ccc(Cl)cc1C(=O)Nc1cc(Cl)ccc1C(=O)O,-5.26%
8,Sc1nnc(CN2CCSCC2)n1-c1ccc(Cl)cc1,4.84%
9,CCOC(=O)c1cc(C)n(CC2CCC(C(=O)NC3CCCCCC3)CC2)c1C (stereo not shown),-0.943%
10,O=C(Cc1cccc2ccccc12)Nc1nc(-c2ccc(S(=O)(=O)N3CCOCC3)cc2)cs1,5.26%
11,CN(C)CCNC(=O)c1nc(CS(=O)(=O)c2ccccc2)no1,-3.07%
12,Cc1ccc(N2C(N)=C(C#N)C(c3cc(Br)cs3)C3=C2CCCC3=O)cc1 (stereo not shown),2.44%
13,Clc1ccc(Cn2cnc3ccccc32)cc1Cl,-1.59%
14,Cc1ccc(C#N)c(SCC(=O)N(c2ccccc2)c2ccccc2)n1,0.674%
15,COc1ccccc1C(=O)N/C(=C/c1ccc(F)cc1)C(=O)Nc1cccc(C(=O)O)c1,-0.981%
16,COc1cc(/C=C2\S/C(=N/c3ccc(Cl)cc3)N(C)C2=O)cc(OC)c1O,13.6%
17,Cc1ccc2nc3c(O)n(CC(=O)NCCCN4CCc5ccccc5C4)ncc-3c2c1,1.92%
18,COC(=O)CCS(=O)(=O)c1cc(Cl)ccc1Cl,4.12%
19,COc1ccc(-c2cn3c4c(=O)n(C)c(=O)n(C)c4nc3n2-c2cccc3c2OCCO3)cc1,-0.994%
20,CCn1cc(Br)c(C(=O)Nc2cccc(C(F)(F)F)c2)n1,1.62%
21,O=C1NCC(=O)N2CCc3ccccc3C12 (stereo not shown),-0.261%

row,Structure (SMILES),% Inhibition @ 10 uM
1,O=C1C(Cc2ccccc2)=C(O)OC2C=CC=CC12 (stereo not shown),-1.85%
2,O=[N+]([O-])c1c(NCCO)ccc2nonc12,-0.807%
3,CCN1CCC(N2CCN(c3ccc([N+](=O)[O-])cc3)CC2)CC1,1.57%
4,COc1ccc(-n2nc3ccc(NC(=O)COc4ccccc4Cl)cc3n2)cc1,14.2%
5,CC(C)(C)NC(=O)CN(c1cccc(Br)c1)S(C)(=O)=O,-5.19%
6,CC1CCCCN1CCNC(=O)c1cnn2c(C(F)(F)F)cc(-c3ccccc3)nc12 (stereo not shown),-5.92%
7,COc1ccc2c(COc3ccc4c(=O)c(-c5ccccc5)coc4c3)cc(=O)oc2c1,-2.91%
8,COc1ccccc1/C=C(\C#N)c1nc(-c2ccc(Cl)c(Cl)c2)cs1,2.6%
9,CCOc1ccc(C2C3=C(CC(C)(C)CC3=O)N(CC(=O)O)C3=C2C(=O)CC(C)(C)C3)cc1Cl,-0.318%
10,CCc1ccc(C2CC(=O)c3c([nH]c(C(=O)OC)c3C)C2)cc1 (stereo not shown),2.35%
11,O=C(CSc1nc2cccnc2[nH]1)NCc1ccco1,3.95%
12,Cn1c(=O)c2c(nc(NCCCO)n2Cc2cccc3ccccc23)n(C)c1=O,4.67%
13,O=C(NCc1ccco1)c1ccc(CNS(=O)(=O)c2cccc(C(F)(F)F)c2)cc1,-0.055%
14,CC(=O)c1ccc(N2C(=O)c3cc(Cl)c(Cl)cc3C2=O)cc1,-7.32%
15,O=C(NCC12C=CC(O1)C1C(=O)N(c3ccccc3)C(=O)C12)c1ccco1 (stereo not shown),32.4%
16,COc1ccc(CCC(C)(C)CC(=O)O)cc1,-1.78%
17,Cc1ccc(-n2nc3c(=O)n(CCCC(=O)N4CCC(N5CCCCC5)CC4)nc(C)c3c2C)cc1,-0.307%
18,CCCCN(C)CCCNC(=O)Cn1cc2c(n1)-c1c(oc(C(=O)N3CCCC3)c1C)CC2,2.54%
19,O=C(Nc1ccc(N2CCN(Cc3ccccc3)CC2)cc1)c1cccnc1Cl,7.02%
20,COc1cccc(C(=O)Nc2cccc(C(F)(F)F)c2)c1,0.0504%
21,Cc1ccc(C)c(Cn2nc(-c3ccccc3)ccc2=O)c1,-0.946%

row,Structure (SMILES),% Inhibition @ 10 uM
1,CN1C(N)=NC(=O)/C1=C/c1ccc(OCc2ccccc2)cc1,4.18%
2,CC[C@@H](C)[C@H](NC(=O)Cc1cccc([N+](=O)[O-])c1)C(=O)N[C@@H](CCc1ccccc1)C(=O)COCc1ccccc1,-7.36%
3,O=C(Nc1cnn(Cc2ccc(F)cc2)c1)c1cc2n(n1)C(C(F)(F)F)CC(c1ccco1)N2 (stereo not shown),7.16%
4,CCN(Cc1ccccc1)c1nc2c(S(=O)(=O)c3ccccc3)nnn2c2ccccc12,-8.58%
5,COc1ccc(-c2cc(C(=O)N3CCCCC3C)[nH]n2)cc1 (stereo not shown),3.75%
6,CC(C)(C)NS(=O)(=O)c1ccc(NC(=O)CS(=O)(=O)Cc2ccccc2)cc1,-1.06%
7,Cc1ccccc1OC(C)C(=O)Nc1ccc(O)cc1 (stereo not shown),1.28%
8,COc1ccccc1NC(=O)Nc1ccc(Cl)c(Cl)c1,-2.18%
9,CC(CC(=O)O)C(C)c1ccccc1 (stereo not shown),-0.0505%
10,CCn1c(C(=O)N2CCC(C(=O)NCCCSC3CCCCC3)CC2)cc2sccc21,4.95%
11,CCCNC(=O)C1CC(=O)N(c2ccc(Cl)cc2)C1 (stereo not shown),-7.91%
12,CS(=O)(=O)N(CC(=O)N1CCOCC1)Cc1ccccc1,2.95%
13,COc1cccc(CNC(=O)CN2N=C(c3ccccc3)CCC2=O)c1,-4.83%
14,CCCNC(=O)c1ccc(C)c([N+](=O)[O-])c1,-4.91%
15,CCc1[nH]nc2c1C(c1c[nH]c3ccccc13)C(C#N)=C(N)O2 (stereo not shown),3.99%
16,O=C(CN1C(=O)c2ccccc2C1=O)N1CCN(c2nnc(-c3ccccc3)c3ccccc23)CC1,0.778%
17,O=C(CCN1N=C(c2ccccc2)CCC1=O)NCC1COc2ccccc2O1 (stereo not shown),2.35%
18,Cc1cc(OCC(=O)Nc2ccccc2C(N)=O)c(C(C)C)cc1Br,-1.02%
19,CCO/C(O)=C1\C(C)=Nc2nnnn2C1c1ccc(OCc2ccc(C)cc2)cc1 (stereo not shown),3.6%
